# Test results reported in the supplement of paper PMC8728848.
# The other results are listed elsewhere or left out.
# B1: DrGRIFIN (Danio rerio), Q6DGJ1 (protein)
# chain: MTLRFEASCPDGLCPGWSVILKGETPPEASKFEINFLCDRDDRVAFHFNPRFTESDIICNSYMANRWGQEERCNHFPLGVEEPFQIEIYSDNDHFHVYIDKAKVMQYKHRVEDLKTITKLQVVNDVKISSLEITKKLFY
# How the values were obtained:
# Experiment in all cases: glycan array binding signal (z-score within array); higher = stronger binding
# Settings in all cases: glycan notation: IUPAC condensed, linker removed
# GlcNAc(b1-3)Gal(b1-4)Glc = biological target: GlcNAc(b1-3)Gal(b1-4)Glc
# Procedure, shortened: (§1)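 The binding signal is a Z-score computed within each array. Data were drawn from 3228 arrays in the Consortium for Functional Glycomics database, restricted to those with a known protein sequence. Scores were averaged over arrays of the same protein sequence at different concentrations or buffers, and over linkers, and negative values can be taken as non-binding.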
# [1] = biological target: GlcNAc(b1-3)Gal(b1-4)GlcNAc
# Procedure, shortened: as §1
# [2] = biological target: GlcNAc(b1-3)Gal(b1-4)GlcNAc(b1-2)Man(a1-3)[GlcNAc(b1-3)Gal(b1-4)GlcNAc(b1-2)Man(a1-6)]Man(b1-4)GlcNAc(b1-4)GlcNAc
# Procedure, shortened: as §1
# [3] = biological target: GlcNAc(b1-3)Gal(b1-4)GlcNAc(b1-2)Man(a1-3)[GlcNAc(b1-3)Gal(b1-4)GlcNAc(b1-2)Man(a1-6)]Man(b1-4)GlcNAc(b1-4)[Fuc(a1-6)]GlcNAc
# Procedure, shortened: as §1
# [4] = biological target: GlcNAc(b1-3)Gal(b1-4)GlcNAc(b1-2)[GlcNAc(b1-3)Gal(b1-4)GlcNAc(b1-6)]Man(a1-6)[GlcNAc(b1-3)Gal(b1-4)GlcNAc(b1-2)Man(a1-3)]Man(b1-4)GlcNAc(b1-4)GlcNAc
# Procedure, shortened: as §1
# [5] = biological target: GlcNAc(b1-3)Gal(b1-4)GlcNAc(b1-3)Gal(b1-4)GlcNAc
# Procedure, shortened: as §1
# [6] = biological target: GlcNAc(b1-3)Gal(b1-4)GlcNAc(b1-3)Gal(b1-4)GlcNAc(b1-2)Man(a1-3)[GlcNAc(b1-3)Gal(b1-4)GlcNAc(b1-3)Gal(b1-4)GlcNAc(b1-2)Man(a1-6)]Man(b1-4)GlcNAc(b1-4)GlcNAc
# Procedure, shortened: as §1
# [7] = biological target: GlcNAc(b1-3)Gal(b1-4)GlcNAc(b1-3)Gal(b1-4)GlcNAc(b1-2)Man(a1-3)[GlcNAc(b1-3)Gal(b1-4)GlcNAc(b1-3)Gal(b1-4)GlcNAc(b1-2)Man(a1-6)]Man(b1-4)GlcNAc(b1-4)[Fuc(a1-6)]GlcNAc
# Procedure, shortened: as §1
# [8] = biological target: GlcNAc(b1-3)Gal(b1-4)GlcNAc(b1-3)Gal(b1-4)GlcNAc(b1-2)[GlcNAc(b1-3)Gal(b1-4)GlcNAc(b1-3)Gal(b1-4)GlcNAc(b1-6)]Man(a1-6)[GlcNAc(b1-3)Gal(b1-4)GlcNAc(b1-3)Gal(b1-4)GlcNAc(b1-2)Man(a1-3)]Man(b1-4)GlcNAc(b1-4)[Fuc(a1-6)]GlcNAc
# Procedure, shortened: as §1
# [9] = biological target: GlcNAc(b1-3)Gal(b1-4)GlcNAc(b1-3)Gal(b1-4)GlcNAc(b1-3)Gal(b1-4)GlcNAc(b1-2)Man(a1-3)[GlcNAc(b1-3)Gal(b1-4)GlcNAc(b1-3)Gal(b1-4)GlcNAc(b1-3)Gal(b1-4)GlcNAc(b1-2)Man(a1-6)]Man(b1-4)GlcNAc(b1-4)GlcNAc
# Procedure, shortened: as §1
# [10] = biological target: GlcNAc(b1-3)Gal(b1-4)GlcNAc(b1-3)Gal(b1-4)GlcNAc(b1-3)Gal(b1-4)GlcNAc(b1-2)Man(a1-3)[GlcNAc(b1-3)Gal(b1-4)GlcNAc(b1-3)Gal(b1-4)GlcNAc(b1-3)Gal(b1-4)GlcNAc(b1-2)Man(a1-6)]Man(b1-4)GlcNAc(b1-4)[Fuc(a1-6)]GlcNAc
# Procedure, shortened: as §1
# [11] = biological target: GlcNAc(b1-3)Gal(b1-4)GlcNAc(b1-3)Gal(b1-4)GlcNAc(b1-3)Gal(b1-4)GlcNAc(b1-2)[GlcNAc(b1-3)Gal(b1-4)GlcNAc(b1-3)Gal(b1-4)GlcNAc(b1-3)Gal(b1-4)GlcNAc(b1-6)]Man(a1-6)[GlcNAc(b1-3)Gal(b1-4)GlcNAc(b1-3)Gal(b1-4)GlcNAc(b1-3)Gal(b1-4)GlcNAc(b1-2)Man(a1-3)]Man(b1-4)GlcNAc(b1-4)[Fuc(a1-6)]GlcNAc
# Procedure, shortened: as §1
# [12] = biological target: GlcNAc(b1-3)Gal(b1-4)GlcNAc(b1-3)Gal(b1-4)GlcNAc(b1-3)Gal(b1-4)GlcNAc(b1-3)Gal(b1-4)GlcNAc(b1-2)Man(a1-3)[GlcNAc(b1-3)Gal(b1-4)GlcNAc(b1-3)Gal(b1-4)GlcNAc(b1-3)Gal(b1-4)GlcNAc(b1-3)Gal(b1-4)GlcNAc(b1-2)Man(a1-6)]Man(b1-4)GlcNAc(b1-4)GlcNAc
# Procedure, shortened: as §1
# [13] = biological target: GlcNAc(b1-3)Gal(b1-4)GlcNAc(b1-3)Gal(b1-4)GlcNAc(b1-3)Gal(b1-4)GlcNAc(b1-3)Gal(b1-4)GlcNAc(b1-2)Man(a1-3)[GlcNAc(b1-3)Gal(b1-4)GlcNAc(b1-3)Gal(b1-4)GlcNAc(b1-3)Gal(b1-4)GlcNAc(b1-3)Gal(b1-4)GlcNAc(b1-2)Man(a1-6)]Man(b1-4)GlcNAc(b1-4)[Fuc(a1-6)]GlcNAc
# Procedure, shortened: as §1
# [14] = biological target: GlcNAc(b1-3)Gal(b1-4)GlcNAc(b1-3)Gal(b1-4)GlcNAc(b1-3)Gal(b1-4)GlcNAc(b1-3)Gal(b1-4)GlcNAc(b1-2)[GlcNAc(b1-3)Gal(b1-4)GlcNAc(b1-3)Gal(b1-4)GlcNAc(b1-3)Gal(b1-4)GlcNAc(b1-3)Gal(b1-4)GlcNAc(b1-6)]Man(a1-6)[GlcNAc(b1-3)Gal(b1-4)GlcNAc(b1-3)Gal(b1-4)GlcNAc(b1-3)Gal(b1-4)GlcNAc(b1-3)Gal(b1-4)GlcNAc(b1-2)Man(a1-3)]Man(b1-4)GlcNAc(b1-4)[Fuc(a1-6)]GlcNAc
# Procedure, shortened: as §1
# [15] = biological target: GlcNAc(b1-3)Gal(b1-4)GlcNAc(b1-3)Gal(b1-4)GlcNAc(b1-3)GalNAc
# Procedure, shortened: as §1
# [16] = biological target: GlcNAc(b1-3)Gal(b1-4)GlcNAc(b1-3)GalNAc
# Procedure, shortened: as §1
# [17] = biological target: GlcNAc(b1-3)Gal(b1-4)GlcNAc(b1-3)[GlcNAc(b1-3)Gal(b1-4)GlcNAc(b1-3)]GalNAc
# Procedure, shortened: as §1
# [18] = biological target: GlcNAc(b1-3)Gal(b1-4)GlcNAc(b1-6)[Gal(b1-3)]GalNAc
# Procedure, shortened: as §1
# [19] = biological target: GlcNAc(b1-3)Gal(b1-4)GlcNAc(b1-6)[GlcNAc(b1-3)Gal(b1-3)]GalNAc
# Procedure, shortened: as §1
# [20] = biological target: GlcNAc(b1-3)Gal(b1-4)GlcNAc(b1-6)[GlcNAc(b1-3)]Gal(b1-4)GlcNAc
# Procedure, shortened: as §1
# GlcNAc(b1-3)GalNAc = biological target: GlcNAc(b1-3)GalNAc
# Procedure, shortened: as §1
binder,measurement,setting,value
B1,glycan array binding signal (z-score),GlcNAc(b1-3)Gal(b1-4)Glc,-0.171
same,glycan array binding signal (z-score),[1],-0.153
same,glycan array binding signal (z-score),[2],-0.132
same,glycan array binding signal (z-score),[3],-0.163
same,glycan array binding signal (z-score),[4],-0.182
same,glycan array binding signal (z-score),[5],-0.181
same,glycan array binding signal (z-score),[6],-0.14
same,glycan array binding signal (z-score),[7],-0.169
same,glycan array binding signal (z-score),[8],-0.18
same,glycan array binding signal (z-score),[9],-0.159
same,glycan array binding signal (z-score),[10],-0.221
same,glycan array binding signal (z-score),[11],-0.163
same,glycan array binding signal (z-score),[12],-0.138
same,glycan array binding signal (z-score),[13],-0.206
same,glycan array binding signal (z-score),[14],-0.149
same,glycan array binding signal (z-score),[15],-0.2
same,glycan array binding signal (z-score),[16],-0.078
same,glycan array binding signal (z-score),[17],-0.215
same,glycan array binding signal (z-score),[18],-0.176
same,glycan array binding signal (z-score),[19],-0.174
same,glycan array binding signal (z-score),[20],-0.16
same,glycan array binding signal (z-score),GlcNAc(b1-3)GalNAc,-0.068
